# The other results are listed elsewhere or left out.
# Assays:
# Test in all cases: glycan array binding signal (z-score within array); higher = stronger binding
# Settings in all cases: glycan notation: IUPAC condensed, linker removed
# [1] = target: Neu5Ac(a2-3)Gal(b1-3)[Fuc(a1-4)]GlcNAc
# Method in brief: (§1)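 Glycan array data were curated from 3228 arrays in the Consortium for Functional Glycomics database and kept only where the protein sequence was available. Glycan names were converted to IUPAC-condensed notation, and columns mapping to the same glycan were averaged. The binding signal is a within-array Z-score, averaged across arrays of the same protein sequence at different concentrations or buffers and across linkers. Negative Z-scores can be read as non-binding.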
# [2] = target: Neu5Ac(a2-3)Gal(b1-3)[Fuc(a1-4)]GlcNAc(b1-3)Gal(b1-3)[Fuc(a1-4)]GlcNAc
# Method in brief: as §1
# [3] = target: Neu5Ac(a2-3)Gal(b1-3)[Fuc(a1-4)]GlcNAc(b1-3)Gal(b1-4)[Fuc(a1-3)]GlcNAc
# Method in brief: as §1
# [4] = target: Neu5Ac(a2-3)Gal(b1-3)[GlcNAc(b1-6)]GalNAc
# Method in brief: as §1
# [5] = target: Neu5Ac(a2-3)Gal(b1-3)[Neu5Ac(a2-6)]GalNAc
# Method in brief: as §1
# [6] = target: Neu5Ac(a2-3)Gal(b1-3)[Neu5Ac(a2-6)]GlcNAc(b1-3)[Fuc(a1-3)[Gal(b1-4)]GlcNAc(b1-6)]Gal(b1-4)Glc
# Method in brief: as §1
# [7] = target: Neu5Ac(a2-3)Gal(b1-3)]Neu5Ac(a2-3)Gal(b1-4)]GlcNAc
# Method in brief: as §1
# [8] = target: Neu5Ac(a2-3)Gal(b1-4)Glc
# Method in brief: as §1
# [9] = target: Neu5Ac(a2-3)Gal(b1-4)GlcNAc
# Method in brief: as §1
# [10] = target: Neu5Ac(a2-3)Gal(b1-4)GlcNAc(b1-2)Man
# Method in brief: as §1
# [11] = target: Neu5Ac(a2-3)Gal(b1-4)GlcNAc(b1-2)Man(a1-3)[GlcNAc(b1-4)][Neu5Ac(a2-3)Gal(b1-4)GlcNAc(b1-2)Man(a1-6)]Man(b1-4)GlcNAc(b1-4)GlcNAc
# Method in brief: as §1
# [12] = target: Neu5Ac(a2-3)Gal(b1-4)GlcNAc(b1-2)Man(a1-3)[Neu5Ac(a2-3)Gal(b1-4)GlcNAc(b1-2)Man(a1-6)]Man(b1-4)GlcNAc(b1-4)GlcNAc
# Method in brief: as §1
# [13] = target: Neu5Ac(a2-3)Gal(b1-4)GlcNAc(b1-2)Man(a1-3)[Neu5Ac(a2-3)Gal(b1-4)GlcNAc(b1-2)Man(a1-6)]Man(b1-4)GlcNAc(b1-4)[Fuc(a1-6)]GlcNAc
# Method in brief: as §1
# [14] = target: Neu5Ac(a2-3)Gal(b1-4)GlcNAc(b1-2)Man(a1-3)[Neu5Ac(a2-6)Gal(b1-4)GlcNAc(b1-2)Man(a1-6)]Man(b1-4)GlcNAc(b1-4)GlcNAc
# Method in brief: as §1
# [15] = target: Neu5Ac(a2-3)Gal(b1-4)GlcNAc(b1-2)[Neu5Ac(a2-3)Gal(b1-4)GlcNAc(b1-4)]Man(a1-3)[GlcNAc(b1-4)][Neu5Ac(a2-3)Gal(b1-4)GlcNAc(b1-2)[Neu5Ac(a2-3)Gal(b1-4)GlcNAc(b1-6)]Man(a1-6)]Man(b1-4)GlcNAc(b1-4)GlcNAc
# Method in brief: as §1
# [16] = target: Neu5Ac(a2-3)Gal(b1-4)GlcNAc(b1-2)[Neu5Ac(a2-3)Gal(b1-4)GlcNAc(b1-4)]Man(a1-3)[GlcNAc(b1-4)][Neu5Ac(a2-3)Gal(b1-4)GlcNAc(b1-4)Man(a1-6)]Man(b1-4)GlcNAc(b1-4)GlcNAc
# Method in brief: as §1
# [17] = target: Neu5Ac(a2-3)Gal(b1-4)GlcNAc(b1-2)[Neu5Ac(a2-3)Gal(b1-4)GlcNAc(b1-6)]Man(a1-6)[Neu5Ac(a2-3)Gal(b1-4)GlcNAc(b1-2)Man(a1-3)]Man(b1-4)GlcNAc(b1-4)GlcNAc
# Method in brief: as §1
# [18] = target: Neu5Ac(a2-3)Gal(b1-4)GlcNAc(b1-2)[Neu5Ac(a2-3)Gal(b1-4)GlcNAc(b1-6)]Man(a1-6)[Neu5Ac(a2-3)Gal(b1-4)GlcNAc(b1-2)Man(a1-3)][GlcNAc(b1-4)]Man(b1-4)GlcNAc(b1-4)GlcNAc
# Method in brief: as §1
# [19] = target: Neu5Ac(a2-3)Gal(b1-4)GlcNAc(b1-3)Gal
# Method in brief: as §1
# [20] = target: Neu5Ac(a2-3)Gal(b1-4)GlcNAc(b1-3)Gal(b1-3)GlcNAc
# Method in brief: as §1
# [21] = target: Neu5Ac(a2-3)Gal(b1-4)GlcNAc(b1-3)Gal(b1-4)GlcNAc
# Method in brief: as §1
# [22] = target: Neu5Ac(a2-3)Gal(b1-4)GlcNAc(b1-3)Gal(b1-4)GlcNAc(b1-2)Man(a1-3)[Neu5Ac(a2-3)Gal(b1-4)GlcNAc(b1-3)Gal(b1-4)GlcNAc(b1-2)Man(a1-6)]Man(b1-4)GlcNAc(b1-4)GlcNAc
# Method in brief: as §1
# [23] = target: Neu5Ac(a2-3)Gal(b1-4)GlcNAc(b1-3)Gal(b1-4)GlcNAc(b1-3)Gal(b1-4)GlcNAc
# Method in brief: as §1
# [24] = target: Neu5Ac(a2-3)Gal(b1-4)GlcNAc(b1-3)Gal(b1-4)GlcNAc(b1-3)Gal(b1-4)GlcNAc(b1-2)Man(a1-3)[Neu5Ac(a2-3)Gal(b1-4)GlcNAc(b1-3)Gal(b1-4)GlcNAc(b1-3)Gal(b1-4)GlcNAc(b1-2)Man(a1-6)]GalNAc
# Method in brief: as §1
# [25] = target: Neu5Ac(a2-3)Gal(b1-4)GlcNAc(b1-3)Gal(b1-4)GlcNAc(b1-3)GalNAc
# Method in brief: as §1
# [26] = target: Neu5Ac(a2-3)Gal(b1-4)GlcNAc(b1-3)Gal(b1-4)GlcNAc(b1-3)[Neu5Ac(a2-3)Gal(b1-4)GlcNAc(b1-3)Gal(b1-4)GlcNAc(b1-6)]GalNAc
# Method in brief: as §1
# [27] = target: Neu5Ac(a2-3)Gal(b1-4)GlcNAc(b1-3)Gal(b1-4)GlcNAc(b1-6)[Gal(b1-3)]GalNAc
# Method in brief: as §1
# [28] = target: Neu5Ac(a2-3)Gal(b1-4)GlcNAc(b1-3)Gal(b1-4)[Fuc(a1-3)]GlcNAc
# Method in brief: as §1
# [29] = target: Neu5Ac(a2-3)Gal(b1-4)GlcNAc(b1-3)GalNAc
# Method in brief: as §1
# [30] = target: Neu5Ac(a2-3)Gal(b1-4)GlcNAc(b1-3)[Neu5Ac(a2-3)Gal(b1-4)GlcNAc(b1-6)]GalNAc
# Method in brief: as §1
# [31] = target: Neu5Ac(a2-3)Gal(b1-4)GlcNAc(b1-6)GalNAc
# Method in brief: as §1
# [32] = target: Neu5Ac(a2-3)Gal(b1-4)GlcNAc(b1-6)[Gal(b1-3)]GalNAc
# Method in brief: as §1
# [33] = target: Neu5Ac(a2-3)Gal(b1-4)GlcNAc(b1-6)[Neu5Ac(a2-3)Gal(b1-3)]GalNAc
# Method in brief: as §1
# [34] = target: Neu5Ac(a2-3)Gal(b1-4)GlcNAc6S
# Method in brief: as §1
# [35] = target: Neu5Ac(a2-3)Gal(b1-4)[Fuc(a1-3)]GlcNAc
# Method in brief: as §1
# [36] = target: Neu5Ac(a2-3)Gal(b1-4)[Fuc(a1-3)]GlcNAc(b1-2)Man
# Method in brief: as §1
# [37] = target: Neu5Ac(a2-3)Gal(b1-4)[Fuc(a1-3)]GlcNAc(b1-3)Gal
# Method in brief: as §1
# [38] = target: Neu5Ac(a2-3)Gal(b1-4)[Fuc(a1-3)]GlcNAc(b1-3)Gal(b1-4)GlcNAc
# Method in brief: as §1
# [39] = target: Neu5Ac(a2-3)Gal(b1-4)[Fuc(a1-3)]GlcNAc(b1-3)Gal(b1-4)[Fuc(a1-3)]GlcNAc(b1-3)Gal(b1-4)[Fuc(a1-3)]GlcNAc
# Method in brief: as §1
# [40] = target: Neu5Ac(a2-3)Gal(b1-4)[Fuc(a1-3)]GlcNAc(b1-3)GalNAc
# Method in brief: as §1
# [41] = target: Neu5Ac(a2-3)Gal(b1-4)[Fuc(a1-3)]GlcNAc(b1-6)[Gal(b1-3)]GalNAc
# Method in brief: as §1
# [42] = target: Neu5Ac(a2-3)Gal(b1-4)[Fuc(a1-3)]GlcNAc(b1-6)[Neu5Ac(a2-3)Gal(b1-3)]GalNAc
# Method in brief: as §1
# [43] = target: Neu5Ac(a2-3)Gal(b1-4)[Fuc(a1-3)]GlcNAc6S
# Method in brief: as §1
# [44] = target: Neu5Ac(a2-3)Gal6S(b1-4)GlcNAc
# Method in brief: as §1
# [45] = target: Neu5Ac(a2-3)Gal6S(b1-4)[Fuc(a1-3)]GlcNAc
# Method in brief: as §1
binder,measurement,setting,value
TIM1 (protein) ADGIQSVKVGGEAGPSVTLPCHYSGAVTSMCWNRGSCSLFTCQNGIVWTNGTHVTYRKDTRYKLLGDLSRRDVSLTIENTAVSDSGVYCCRVEHRGWFNDMKITVSLEIVPPHHHHHH,glycan array binding signal (z-score),[1],-0.229
same,glycan array binding signal (z-score),[2],-0.006
same,glycan array binding signal (z-score),[3],-0.201
same,glycan array binding signal (z-score),[4],-0.219
same,glycan array binding signal (z-score),[5],-0.095
same,glycan array binding signal (z-score),[6],-0.259
same,glycan array binding signal (z-score),[7],-0.226
same,glycan array binding signal (z-score),[8],0.916
same,glycan array binding signal (z-score),[9],-0.262
same,glycan array binding signal (z-score),[10],0.197
same,glycan array binding signal (z-score),[11],-0.169
same,glycan array binding signal (z-score),[12],-0.26
same,glycan array binding signal (z-score),[13],-0.132
same,glycan array binding signal (z-score),[14],-0.252
same,glycan array binding signal (z-score),[15],-0.288
same,glycan array binding signal (z-score),[16],-0.276
same,glycan array binding signal (z-score),[17],-0.172
same,glycan array binding signal (z-score),[18],-0.272
same,glycan array binding signal (z-score),[19],-0.298
same,glycan array binding signal (z-score),[20],-0.249
same,glycan array binding signal (z-score),[21],-0.192
same,glycan array binding signal (z-score),[22],1.02
same,glycan array binding signal (z-score),[23],-0.238
same,glycan array binding signal (z-score),[24],4.84
same,glycan array binding signal (z-score),[25],-0.303
same,glycan array binding signal (z-score),[26],-0.113
same,glycan array binding signal (z-score),[27],-0.117
same,glycan array binding signal (z-score),[28],-0.257
same,glycan array binding signal (z-score),[29],-0.232
same,glycan array binding signal (z-score),[30],-0.117
same,glycan array binding signal (z-score),[31],-0.189
same,glycan array binding signal (z-score),[32],-0.071
same,glycan array binding signal (z-score),[33],-0.294
same,glycan array binding signal (z-score),[34],-0.181
same,glycan array binding signal (z-score),[35],-0.079
same,glycan array binding signal (z-score),[36],-0.204
same,glycan array binding signal (z-score),[37],-0.217
same,glycan array binding signal (z-score),[38],-0.095
same,glycan array binding signal (z-score),[39],-0.102
same,glycan array binding signal (z-score),[40],0.198
same,glycan array binding signal (z-score),[41],0.854
same,glycan array binding signal (z-score),[42],0.165
same,glycan array binding signal (z-score),[43],-0.205
same,glycan array binding signal (z-score),[44],-0.241
same,glycan array binding signal (z-score),[45],-0.189

# Source: the supplement of paper PMC8728848
